Here are results for 83 compounds from ChEMBL document CHEMBL4888484, “Replenishing the malaria drug discovery pipeline: Screening and hit evaluation of the MMV Hit Generation Library 1 (HGL1) against asexual blood stage Plasmodium falciparum ,using a nano luciferase reporter read-out” (2022).

Screen size: about 150,000 compounds; about 540 (0.36%) showed an effect of 50% or more. The list shows a part of the results.

For this assay, the system named is Plasmodium falciparum. As to the kind of experiment: Primary screen in NF54 nanoGlo assay, in single point, at 2uM, 72h; a lower Z score goes with more inhibition. It is filed as functional, Erythrocyte. Conditions: timepoint 72 hour.
In the case of `O=C(NCCNC(=O)c1ccccc1Cl)N[C@@H]1COC2(CCCCC2)C1`, the “% Inhibition” value is on record as -15% and the Z score came out at 1.4.
As to `COc1ccc(C(=O)N2[C@H](C(=O)NCc3cccnc3)COC23CCN(C(=O)c2ccccc2C)CC3)cc1`, the “% Inhibition” value is -5% and the Z score is 0.8.
The matching figures for `O=C([C@@H]1CCCO1)N1CCc2[nH]c3ccc(F)cc3c2C1`: -10% and 1.58.
The matching figures for `Cn1cc(-c2cncc3c2CCCC3)cn1`: -15% and 1.72.
`CCOC(OCC)c1cc(-c2ccncc2)[nH]n1`: the “% Inhibition” value was -6% and the Z score was 1.03.
Consider `O=S(=O)(NC[C@@H](c1cccc(Cl)c1)N1CCCC1)c1ccc2c(c1)OCO2`, for which the “% Inhibition” value is -10% and the Z score is 1.36.
The matching figures for `Cc1nc(C2CCCN2S(=O)(=O)[C@H]2C[C@@H]2c2ccccc2)[nH]c1C` (stereo partly specified): -1% and 0.2.
The matching figures for `COc1ccccc1CCN1C[C@@H](C(=O)Nc2ccc3nc(C)[nH]c3c2)CC1=O`: 1% and -0.14.
With `C[C@@]1(C(=O)NCc2ccc(C(=O)Nc3cccnc3)cc2)C=CCC1`, the “% Inhibition” value is on record as 0% and the Z score is recorded as 0.08.
Consider `C[C@@H](Cc1ccco1)NC(=O)C1CCN(S(C)(=O)=O)CC1`, for which the “% Inhibition” value came out at 12% and the Z score was -2.22.
On to `CC1CCC(C(=O)N2CCCC2c2ccc3c(c2)OCCCO3)C2C(=O)N(c3ccccc3)C(=O)C12` (stereo unspecified), for which the “% Inhibition” value was 0% and the Z score was 0.04.
On the same counts, the results for `COc1cc(F)cc2sc(NC(=O)c3c(C)c(C)n[nH]c3=O)nc12` are -2% and 0.49.
For `Cc1ccc2c(Nc3cccc(Cl)c3C)c(C(=O)N3CCCC3)cnc2n1`, the “% Inhibition” value is -3% and the Z score is 0.5.
Regarding `CCOc1ccc(Cl)cc1CN(C)C(=O)NCC1CCN(C(C)=O)CC1`, the “% Inhibition” value amounted to 5% and the Z score is -0.92.
With `COC(c1ccc(Br)cc1)C(C)NC(=O)NCCF` (stereo unspecified), the “% Inhibition” value is -5% and the Z score came out at 0.85.
The matching figures for `CC1(C)CCC[C@@H]1NCc1nccc(N)n1`: 35% and -4.48.
On the same counts, the results for `O=C(c1ccc2sccc2c1)N1CCN[C@@H]2CS(=O)(=O)C[C@@H]21` are -16% and 2.77.
With `NCCOc1cccc(C(=O)NCC2=CCCCC2)c1`, the “% Inhibition” value is given as -6% and the Z score turned out to be 0.99.
Turning to `Cn1c(=O)[nH]cc(CC(=O)NCc2ccc3sccc3c2)c1=O`, the “% Inhibition” value was -9% and the Z score is listed as 1.41.
Turning to `CC(C)(C)c1nc(C(=O)N2CCO[C@H](c3nccs3)C2)cs1`, the “% Inhibition” value was -2% and the Z score turned out to be 0.28.
On the same counts, the results for `COc1ccc(CCC(=O)Nc2cc(-c3cccnc3)no2)cc1` are -32% and 3.11.
Regarding `C#CCNC(=O)c1ccc(=O)n(Cc2c(C)nc3ccccn23)c1`, the “% Inhibition” value was -29% and the Z score was 2.89.
On the same counts, the results for `CCOc1ccc(CCNC(=O)c2nn(-c3ccc(F)cc3)c(=O)n(C)c2=O)cc1OCC` are -18% and 1.63.
The matching figures for `CC(C)Cc1nc2cc(NS(=O)(=O)N(C)C)cc(C(=O)NCCN3CCOCC3)c2n1C`: -12% and 1.7.
In the case of `O=C(c1cccs1)N1CCOC[C@H]1c1ncn(CC(F)(F)F)n1`, the “% Inhibition” value amounted to 3% and the Z score was -0.61.
Regarding `COC(=O)c1ncccc1N(C)Cc1cccc(OC)c1`, the “% Inhibition” value amounted to 10% and the Z score is -1.38.
Regarding `O=C1[C@@H]2[C@H](Cc3ccccc3)N[C@]3(C(=O)Nc4ccccc43)[C@@H]2C(=O)N1c1ccc(F)cc1`, the “% Inhibition” value stood at 13% and the Z score is recorded as -1.68.
Consider `CCn1cnnc1-c1cccc(NS(=O)(=O)C[C@H]2CCCCO2)c1`, for which the “% Inhibition” value is reported as -4% and the Z score was found to be 0.58.
On the same counts, the results for `CCCNc1ncc(CN(C)Cc2ccon2)cn1` are 2% and -0.29.
For the compound `CCN1CCN(c2c(CN(CC(C)C)C(=O)Cc3ccc(F)cc3)c(C)nn2-c2cccc(F)c2)CC1`, the “% Inhibition” value is -1% and the Z score is reported as 0.12.
As for `Nc1nc(N2CCC[C@H](CNC(=O)c3ccc(Cl)cn3)C2)cc2nncn12`, the “% Inhibition” value is given as -4% and the Z score is 0.55.
Consider `COc1ccc(CNC(=O)[C@@H]2CC(=O)c3cc(Cl)ccc3O2)cc1`, for which the “% Inhibition” value worked out at 27% and the Z score is -3.01.
The matching figures for `OC12CCCCC1[C@H](c1ccc3c(c1)OCO3)NCC2` (stereo partly specified): -1% and 0.08.
`COc1ccccc1N1CCN(C(=O)c2cc3c(-c4ccc(Cl)cc4)nn(C)c3s2)CC1`: the “% Inhibition” value turned out to be 0% and the Z score is given as 0.06.
Regarding `Cc1cc(NC(=O)c2ccn(C)c(=O)c2)ncc1Br`, the “% Inhibition” value was -13% and the Z score is recorded as 2.5.
On the same counts, the results for `CCOc1ccccc1-c1nccn1CCn1cccn1` are -19% and 1.74.
For the compound `O=C(NC[C@H]1CCN(Cc2c[nH]cn2)C1)c1cccc2c1NCCC2`, the “% Inhibition” value is recorded as -1% and the Z score was 0.23.
Take `COCCCNC(=O)N1CCCCCCn2c(nnc2-c2ccc(F)cc2)CC1`: the “% Inhibition” value was -10% and the Z score turned out to be 1.38.
The matching figures for `Cc1ccc(-c2ccc3nc[nH]c(=O)c3c2)o1`: -17% and 2.86.
Consider `Cc1nc2c3ccccc3nc(N3CCN([C@@H](C)CO)CC3)n2n1`, for which the “% Inhibition” value was found to be 2% and the Z score is reported as -0.39.
`Nc1[nH]nc(C(=O)N2CCc3[nH]c(-c4ccccc4)nc3C2)c1Cl`: the “% Inhibition” value turned out to be 1% and the Z score is on record as -0.26.
With `CCc1cc(N2CCc3sc(C(N)=O)cc3C2)n2nccc2n1`, the “% Inhibition” value was determined as 2% and the Z score is given as -0.39.
Take `COCC(=O)N1CCN(C(=O)c2c(C)c(C3CC3)nc3ccc(Br)cc23)CC1`: the “% Inhibition” value is given as -15% and the Z score is given as 2.67.
`O=C1CCC(=O)N1CC1CN(S(=O)(=O)c2cccc(Cl)c2)C1`: the “% Inhibition” value is recorded as -18% and the Z score is given as 2.04.
Consider `Cc1cc(F)ccc1NC(=O)c1ncoc1-c1ccco1`, for which the “% Inhibition” value is on record as -7% and the Z score was 0.66.
Take `CC(CN1CCN2C(=O)NCC2C1)c1cccc(Cl)c1` (stereo unspecified): the “% Inhibition” value is listed as -6% and the Z score is listed as 0.57.
The matching figures for `CN(Cc1ccc(F)cc1)C(=O)c1ccc2nc(-c3ccccc3)cn2c1`: -6% and 1.28.
The matching figures for `CC[C@H](C)NC(=O)c1c(O)c2cccc3c2n(c1=O)CCC3`: -14% and 1.27.
Consider `CN1CCCCCC1=Nc1nc(-c2ccccc2)cs1`, for which the “% Inhibition” value was determined as 1% and the Z score is -0.19.
With `CCOc1ncccc1C(=O)N1C[C@@H]2CC[C@H]1CN(Cc1ccccc1)C2`, the “% Inhibition” value is -4% and the Z score is listed as 0.81.
On the same counts, the results for `CCCCOCC(=O)N1CCC[C@@]2(CCC(=O)N(Cc3cnc(C)cn3)C2)C1` are 10% and -1.28.
With `COc1cccc(C(=O)N2CC[C@]3(OC)CC[C@@H](OC)C[C@H]23)c1C`, the “% Inhibition” value was found to be 1% and the Z score is -0.12.
On the same counts, the results for `O=C(CCNc1ccc2nnnn2n1)Nc1ccc(Br)cc1` are -33% and 3.88.
The matching figures for `COc1ccc(CNC(=O)N2CCC[C@H](Oc3nccnc3C#N)C2)cc1`: -14% and 2.46.
For `CNC(=O)c1cccc(NC(=O)N[C@H]2CCCc3sccc32)n1`, the “% Inhibition” value is listed as -2% and the Z score came out at 0.35.
The matching figures for `COc1ccc(-c2cnn3c(C)cc(C)nc23)cc1S(=O)(=O)Nc1ccc(C(C)C)cc1`: 7% and -0.67.
The matching figures for `CC1(C)CCC(C)(NC(=O)c2oc(C3CC3)nc2C(F)F)CC1`: -10% and 1.13.
Turning to `Cc1cnn(C)c1CN1CCC(F)(c2ccccc2Cl)CC1`, the “% Inhibition” value is -11% and the Z score turned out to be 1.83.
The matching figures for `Cc1ccc(NC(=O)[C@H](C)n2nc(-c3ccc(C)cc3)cc(NC(=O)c3ccccc3)c2=O)cc1`: 0% and -0.05.
On the same counts, the results for `CN(c1ncnc2[nH]cnc12)C1CCCCC1` are 6% and -1.1.
On the same counts, the results for `O=C(NC1CCS(=O)(=O)CC1)c1cccnc1OCc1ccccc1F` are -11% and 1.37.
For the compound `O=C(COc1ccc(Cl)cc1N1C(=O)C2CCCCC2C1=O)c1ccc(Cl)cc1` (stereo unspecified), the “% Inhibition” value is listed as 6% and the Z score is listed as -0.72.
As for `COCCN(CC1CN(Cc2sccc2C)CC1c1cccc(F)c1)C(=O)C(C)C` (stereo unspecified), the “% Inhibition” value is listed as -10% and the Z score amounted to 1.74.
On to `CCN(Cc1nc(C(N)=O)no1)Cc1c(F)cccc1Cl`, for which the “% Inhibition” value was -6% and the Z score amounted to 1.04.
For the compound `Cc1ccc(S(=O)(=O)NCc2c(O)nc3ccc(Cl)cc3c2-c2ccccc2)cc1`, the “% Inhibition” value was found to be 1% and the Z score is reported as -0.22.
`FC(F)(F)Cc1nnc(NCc2ccc3c(c2)OCCO3)s1`: the “% Inhibition” value is reported as -16% and the Z score stood at 1.41.
For the compound `O=C(CNC1(Cc2ccccc2)CCCC1)N1CCOCC1`, the “% Inhibition” value was -11% and the Z score turned out to be 1.26.
In the case of `CC(C)(O)C#Cc1ccc([C@H]2N[C@@H](CO)[C@H]3CN(c4ccccc4)C[C@H]32)s1`, the “% Inhibition” value is -7% and the Z score turned out to be 1.36.
On the same counts, the results for `c1ccc(-c2nc([C@@H]3COCCO3)n(-c3cccc4cccnc34)n2)cc1` are -6% and 1.11.
On the same counts, the results for `Cc1cc(C(=O)N2CCC3(CC2)CC(=O)N(Cc2ccc(F)c(F)c2)C3)[nH]n1` are 4% and -0.5.
The matching figures for `CCN(CC)C(=O)Nc1ccc(S(=O)(=O)NCCO)cc1`: -12% and 2.3.
Take `CCn1ncc(C2=NO[C@H](C(=O)Nc3ccc(F)cc3F)C2)c1C`: the “% Inhibition” value amounted to 6% and the Z score is on record as -0.7.
Turning to `COc1cccc2c1OCCCN(C(=O)CCc1scnc1C)C2`, the “% Inhibition” value is recorded as -13% and the Z score is given as 2.36.
The matching figures for `Cc1ccc(N2CCCC2=O)cc1NC(=O)N1Cc2nc(C)n(C)c(=O)c2C1`: -10% and 1.28.
The matching figures for `O=S1(=O)CC(O)C(N2CCC(c3ccccc3)CC2)C1` (stereo unspecified): 6% and -0.65.
On the same counts, the results for `CC(C)[C@@H](CO)NC(=O)NCc1cc2c(s1)CCC2` are -8% and 0.72.
For `CC[C@H]1CN(CCC(=O)NCCc2ccco2)Cc2ccc(Cl)cc2O1`, the “% Inhibition” value was 0% and the Z score is listed as -0.03.
The matching figures for `COC(=O)C1C2CCC(C2)C1NC(=O)COC1CCCC1` (stereo unspecified): 5% and -0.84.
Turning to `COC1CS(=O)(=O)CC1NC(=O)NC(C)C1Oc2ccccc2C1C` (stereo unspecified), the “% Inhibition” value is -6% and the Z score was 1.
Consider `COc1ccccc1C(CC(C)C)NC(=O)N(C)C1CCOC1` (stereo unspecified), for which the “% Inhibition” value amounted to 6% and the Z score is reported as -0.58.
The matching figures for `C[C@@H](C(=O)N1CCCCCC1)N1CCc2onc(-c3ccccc3)c2C1`: -2% and 0.39.
On the same counts, the results for `Cc1n[nH]c(C)c1[C@H](C)n1cc(-c2cc(CC(C)C)[nH]n2)nn1` are -8% and 1.56.
On the same counts, the results for `CN1[C@@H](C(=O)O)C[C@@H](C(=O)NCc2ccoc2)[C@H]1c1ccccc1F` are 4% and -0.79.
